Hit rate of the full screen: of about 150,000 compounds, about 540 (0.36%) showed an effect of 50% or more. Some of the results follow.

The subject of the assay is Plasmodium falciparum. Kind of assay: Primary screen in NF54 nanoGlo assay, in single point, at 2uM, 72h; a lower Z score goes with more inhibition. The class given is functional, Erythrocyte. The note with it: timepoint 72 hour.
For the compound `CN(CC[C@H]1CNCC[C@H]1CC(=O)O)c1ccc(F)cc1`, the “% Inhibition” value is -9% and the Z score is 1.38.

As for `FC1(F)CC(Cc2noc(Cc3ccc4c(c3)CCCO4)n2)C1`, the “% Inhibition” value was -19% and the Z score was found to be 2.93.

For `CN(Cc1ccc(C(=O)O)cc1)C(=O)c1cccc(N2CCCC2=O)c1`, the “% Inhibition” value is on record as -8% and the Z score was 1.2.

For `CC(C)c1noc(CN(C)Cc2ccccc2-c2ccco2)n1`, the “% Inhibition” value came to 0% and the Z score is -0.02.

With `Cc1cnc(NC2CCN(Cc3ccccc3)CC2)nc1`, the “% Inhibition” value is recorded as 10% and the Z score is given as -1.76.

As to `O=C(CCC1CCCC1)NCCc1noc(-c2cccnc2)n1`, the “% Inhibition” value was -2% and the Z score is 0.19.

In the case of `CC(C)CCNC(=O)CC[C@H]1CCCO1`, the “% Inhibition” value is -9% and the Z score was 0.99.

In the case of `c1ccc(-n2ccc(COc3ccccc3-c3nnc[nH]3)n2)cc1`, the “% Inhibition” value was found to be 29% and the Z score is reported as -3.28.

`COCCOc1cc(=O)n2c(c1C(=O)N1CCc3ccccc3C1)CCOCC2`: the “% Inhibition” value is 0% and the Z score was 0.02.

On to `O=S(=O)(NCC12CCC(CC1)C2)C1CCC1`, for which the “% Inhibition” value is -3% and the Z score is on record as 0.35.

On to `Cc1cnn(Cc2cc(C(=O)N(C)Cc3nc4ccccc4n3C)no2)c1`, for which the “% Inhibition” value was determined as 40% and the Z score is -4.47.

As for `COc1ccc(C2CN(C(=O)c3ccc(Cl)cc3)CC2C(=O)NC2CC2)c(OC)c1` (stereo not drawn), the “% Inhibition” value is recorded as -10% and the Z score came out at 1.23.

For the compound `NC(=O)c1cccc(CNc2ncnc3c2ncn3-c2ccccc2)c1`, the “% Inhibition” value is reported as -24% and the Z score is reported as 2.37.

Turning to `CC(C)[C@H]1COC2(c3ccccc3)CCC(=O)N12` (stereo partly drawn), the “% Inhibition” value is -18% and the Z score stood at 2.27.

With `Cc1cc(S(=O)(=O)N2CC(C)(C)[C@H]2c2nccn2C)c(F)cc1F`, the “% Inhibition” value is recorded as 2% and the Z score was -0.42.

For the compound `O=C(CN1C(=O)COc2ccc(Cl)cc21)N1CCC[C@H](O)C1`, the “% Inhibition” value was -8% and the Z score came out at 1.12.

Turning to `O=C(NC[C@H]1CCCN(c2nccs2)C1)c1ccc2c(c1)OCO2`, the “% Inhibition” value is 18% and the Z score is -2.23.

Take `CS(=O)(=O)C1(CNCc2cc3ccc(F)cc3[nH]2)CCCC1`: the “% Inhibition” value worked out at 2% and the Z score was -0.46.

As for `CC1=NS(=O)(=O)N(C)C=C1C(=O)NCc1ccc(Cl)cc1`, the “% Inhibition” value is on record as -16% and the Z score is given as 1.8.

Regarding `COc1cc2cc(CNCc3ccccc3Cl)c(=O)n(CC3CCCCC3)c2cc1OC`, the “% Inhibition” value is reported as -2% and the Z score is reported as 0.25.

Turning to `O=C(Cc1ccsc1)NCc1ccc(C2CC2)nc1`, the “% Inhibition” value came out at 20% and the Z score is recorded as -2.59.

As to `Cn1nccc1-c1ccc(N2CCCC2)nn1`, the “% Inhibition” value is reported as -3% and the Z score is 0.55.

For `CS(=O)(=O)N1C[C@H]2CC[C@@H](C1)N(C(=O)c1cnoc1-c1ccccc1)C2`, the “% Inhibition” value came out at 5% and the Z score was -0.85.

For `O=S(=O)(c1ccc(-c2noc(/C=C/c3ccccc3Cl)n2)cc1)N1CCCC1`, the “% Inhibition” value is -6% and the Z score was determined as 0.9.

Consider `CN1CCN(Cc2cc(=O)c3cccc(F)c3[nH]2)C[C@]12CCNC(=O)CC2`, for which the “% Inhibition” value is given as -6% and the Z score came to 1.15.

Take `Cc1ccc(C)c(-c2cc(C(=O)N(CCC(=O)N(C)Cc3ccccc3)CC(C)C)no2)c1`: the “% Inhibition” value is reported as 1% and the Z score is listed as -0.18.

For `O=C(c1ccncc1)N1CCC(F)(C(=O)NCc2ccncc2)CC1`, the “% Inhibition” value is -4% and the Z score is given as 0.84.

As to `CC(=O)N1CCN(C(=O)c2coc(CN(Cc3ccc(C(F)(F)F)cc3)Cc3ccc4c(c3)OCO4)n2)CC1`, the “% Inhibition” value was -14% and the Z score is 1.37.

As to `Cc1ccc(CNC(=O)Nc2cc3c(cc2N2CCCC2)n(C)c(=O)n3C)cc1`, the “% Inhibition” value is given as -10% and the Z score amounted to 1.93.

Take `COc1cccc(OC)c1C(=O)N1CC[C@]2(OC)CC[C@H](OC)C[C@H]12`: the “% Inhibition” value was -4% and the Z score is listed as 0.67.

As to `Cc1cnn(CCCNc2nc3c(s2)c(C)nn3C)c1`, the “% Inhibition” value is recorded as -17% and the Z score was found to be 1.51.

Take `Cc1nc2ccccn2c1CNC(=O)Nc1ccnn1[C@H]1CCOC1`: the “% Inhibition” value was -8% and the Z score was determined as 0.96.

Consider `COc1ccccc1C(CNS(=O)(=O)CC1CCCS(=O)(=O)C1)N1CCCC1` (stereo not drawn), for which the “% Inhibition” value is listed as -6% and the Z score is 0.74.

Turning to `O=C(CN1CCC[C@H]1c1nc2ccccc2s1)N1CCc2sccc2C1`, the “% Inhibition” value is recorded as -11% and the Z score was found to be 1.74.

For the compound `Cc1ccc(N2CCC(N3CCC4(CCNC(=O)CC4)CC3)CC2)cc1Cl`, the “% Inhibition” value worked out at 11% and the Z score is given as -1.61.

For `O=C(Nc1nc2ccccc2[nH]1)C1CCC1`, the “% Inhibition” value turned out to be 1% and the Z score is reported as -0.1.

Turning to `O=c1[nH]c2ccc(NS(=O)(=O)c3ccc(Br)cc3)cc2s1`, the “% Inhibition” value was -10% and the Z score was 1.22.

As for `Cc1cc(S(=O)(=O)N2CCC3(CCNC(=O)CC3)CC2)ccc1F`, the “% Inhibition” value is -13% and the Z score turned out to be 2.29.

`COc1ccccc1-c1noc(C[C@@H]2C(=O)Nc3cc(F)ccc32)n1`: the “% Inhibition” value worked out at 1% and the Z score is on record as -0.21.

Turning to `COc1cccc(OC)c1OCc1nc(C(=O)NCc2ccccn2)cs1`, the “% Inhibition” value is -2% and the Z score is reported as 0.34.

For the compound `CC(C)(CNC(=O)[C@H]1CC1(Cl)Cl)N1CCOCC1`, the “% Inhibition” value is given as -5% and the Z score worked out at 0.65.

For `Cc1cnc(C(C)NC(=O)NC(C)(CO)C2CCCCC2)s1` (stereo not drawn), the “% Inhibition” value was 2% and the Z score is -0.29.

As for `CC(=O)N1CCc2c(sc(NC(=O)c3cc(-c4ccccc4)nc4ccccc34)c2C(N)=O)C1`, the “% Inhibition” value is reported as 5% and the Z score was -0.79.

Regarding `N#Cc1cc(C(=O)NCc2cccc(NC(=O)N3CCCC3)c2)c[nH]1`, the “% Inhibition” value is listed as -10% and the Z score was 1.12.

For `CCN1CCO[C@H](c2nnc(COc3ccc4ccccc4c3)o2)C1`, the “% Inhibition” value was -8% and the Z score came out at 0.86.

For the compound `O=C(CCc1nc(C2CC2)no1)N1CCCC1CC1CC2CCC1C2` (stereo not drawn), the “% Inhibition” value was -17% and the Z score stood at 2.42.

For the compound `CN(Cc1ccccc1)c1cccc(-n2ccnc2)n1`, the “% Inhibition” value came to 7% and the Z score is -1.57.

As to `Cc1ccc(-n2nc(C)c(S(=O)(=O)c3ccccc3)c2OC(=O)C(C)(C)C)c(C)c1`, the “% Inhibition” value is -12% and the Z score is given as 1.95.

Take `CO[C@H]1CCC12CCN(S(=O)(=O)c1cccnc1)CC2`: the “% Inhibition” value turned out to be 6% and the Z score was -1.14.

With `CCOc1nnc(CNCCn2cccn2)s1`, the “% Inhibition” value is on record as -4% and the Z score is reported as 0.4.

Regarding `CC[C@@H](CO)NCc1c(C)cc(OC)nc1C`, the “% Inhibition” value is recorded as 16% and the Z score is -1.64.

For the compound `c1ccc(-n2nc(C3CC3)nc2[C@@H]2COc3ccccc3O2)nc1`, the “% Inhibition” value is recorded as -13% and the Z score stood at 1.51.

For the compound `CCCc1nnc(NC(=O)Cc2cccc3ccccc23)s1`, the “% Inhibition” value is 26% and the Z score is on record as -2.91.

In the case of `CC(C)(C)c1nsc(NC(=O)NC2CCN(Cc3ccccc3)CC2)n1`, the “% Inhibition” value is recorded as -14% and the Z score turned out to be 1.46.

Usually % Inhibition stands for the change of the read-out against control, counted positive when it falls.
